A collection of fitness landscapes (doi:10.1126/science.1257360)
The other results are listed elsewhere or left out.

B1: PhoQ; a variant is named by its letters at X, in order, P23837 (parent)
chain: MKKLLRLFFPLSLRVRFLLATAAVVLVLSLAYGMVALIGYSVSFDKTTFRLLRGESNLFYTLAKWENNKLHVELPENIDKQSPTMTLIYDENGQLLWAQRDVPWLMKMIQPDWLKSNGFHEIEADVNDTSLLLSGDHSIQQQLQEVREDDDDAEMTHSVAVNVYPATSRMPKLTIVVVDTIPVELKSSYMVWSWFIYVLSANLLLVIPLLWVAAWWSLRPIEALAKEVRELEEHNRELLNPATTRELTSLVRNLNRLLKSERERYDKYRTTLTDLTHSLKTPLXXLQXXLRSLRSEKMSVSDAEPVMLEQISRISQQIGYYLHRASMRGGTLLSRELHPVAPLLDNLTSALNKVYQRKGVNISLDISPEISFVGEQNDFVEVMGNVLDNACKYCLEFVEISARQTDEHLYIVVEDDGPGIPLSKREVIFDRGQRVDTLRPGQGVGLAVAREITEQYEGKIVAGESMLGGARMEVIFGRQHSAPKDE

Variants of: B1
Assay: enrichment ratio after two sorts for PhoP signalling (ratio (wild type AVST 3.29)); higher = more functional
Conditions: with PhoP (E. coli)

| Variant | enrichment ratio |
| --- | --- |
| YCIP | ≤ 0.25 |
| RGFN | ≤ 0.25 |
| PKMI | ≤ 0.25 |
| AWFA | ≤ 0.25 |
| MIYC | ≤ 0.25 |
| SCMS | 6.76 |
| VVNM | ≤ 0.25 |
| HPFY | ≤ 0.25 |
| PRAT | ≤ 0.25 |
| WICH | ≤ 0.25 |
| ICGM | ≤ 0.25 |
| MGYS | 12.2 |
| IFVK | ≤ 0.25 |
| AHMG | ≤ 0.25 |
| ILDP | ≤ 0.25 |
| SSTS | 10.2 |
| WWAI | ≤ 0.25 |
| MLIW | ≤ 0.25 |
| AHLG | 6.95 |
| WWQM | ≤ 0.25 |
| THSI | 5.98 |
| ARPS | ≤ 0.25 |
| FYGN | ≤ 0.25 |
| LECW | ≤ 0.25 |
| NFNN | ≤ 0.25 |
| MARK | ≤ 0.25 |

| Variant | enrichment ratio |
| --- | --- |
| QIAY | ≤ 0.25 |
| PIMM | ≤ 0.25 |
| TQAV | 7.36 |
| EHLS | ≤ 0.25 |
| SMAR | 3.77 |
| PTES | ≤ 0.25 |
| EMTH | ≤ 0.25 |
| MNRY | ≤ 0.25 |
| LSQG | ≤ 0.25 |
| PEGF | ≤ 0.25 |
| AWCG | ≤ 0.25 |
| VYQL | ≤ 0.25 |
| CYLL | ≤ 0.25 |
| TQSV | 20.7 |
| RHYS | ≤ 0.25 |
| TWGK | ≤ 0.25 |
| YAKM | ≤ 0.25 |
| EYNA | ≤ 0.25 |
| QDCH | ≤ 0.25 |
| SCGY | 8.61 |
| WQHS | ≤ 0.25 |
| RLCS | ≤ 0.25 |
| PEGD | ≤ 0.25 |
| WIKC | ≤ 0.25 |
| FDNH | ≤ 0.25 |
| NYRG | ≤ 0.25 |

| Variant | enrichment ratio |
| --- | --- |
| KNHM | ≤ 0.25 |
| FSHF | ≤ 0.25 |
| PSKR | ≤ 0.25 |
| GNLT | 16.5 |
| QFVV | ≤ 0.25 |
| GTSE | ≤ 0.25 |
| PGHI | ≤ 0.25 |
| TISL | 19.4 |
| TLRY | ≤ 0.25 |
| FCCM | ≤ 0.25 |
| FADY | ≤ 0.25 |
| HLYR | ≤ 0.25 |
| LWES | ≤ 0.25 |
| NWTS | ≤ 0.25 |
| LMCL | ≤ 0.25 |
| VQPQ | ≤ 0.25 |
| RGLQ | ≤ 0.25 |
| DQPQ | ≤ 0.25 |
| AGHW | ≤ 0.25 |
| VDCG | ≤ 0.25 |
| QRAF | ≤ 0.25 |
| DNQI | 22.9 |
| LNNG | ≤ 0.25 |
| QYAS | ≤ 0.25 |
| DFFH | ≤ 0.25 |
| IACA | ≤ 0.25 |

| Variant | enrichment ratio |
| --- | --- |
| NHKH | ≤ 0.25 |
| PVDG | ≤ 0.25 |
| KRCY | 0.665 |
| MWDL | ≤ 0.25 |
| DEDK | ≤ 0.25 |
| RNCT | ≤ 0.25 |
| LSYM | 7.26 |
| AYYD | ≤ 0.25 |
| SHVH | 4.7 |
| GEIQ | ≤ 0.25 |
| IKDH | ≤ 0.25 |
| TFLR | 0.372 |
| DFPL | ≤ 0.25 |
| WEQL | ≤ 0.25 |
| QMML | ≤ 0.25 |
| TFWH | ≤ 0.25 |
| TAAS | 10.8 |
| SCEW | ≤ 0.25 |
| KYRA | ≤ 0.25 |
| DNMR | ≤ 0.25 |
| CIVQ | ≤ 0.25 |
| NERA | ≤ 0.25 |
| DECM | ≤ 0.25 |
| YCKA | ≤ 0.25 |
| LLRY | ≤ 0.25 |
| RNWM | ≤ 0.25 |

| Variant | enrichment ratio |
| --- | --- |
| IVSQ | ≤ 0.25 |
| YWTA | ≤ 0.25 |
| WPPY | ≤ 0.25 |
| EGSH | ≤ 0.25 |
| TQKR | ≤ 0.25 |
| YEVG | ≤ 0.25 |
| EILD | ≤ 0.25 |
| CAYT | ≤ 0.25 |
| NMMY | ≤ 0.25 |
| EFAI | ≤ 0.25 |
| YAAQ | ≤ 0.25 |
| YYVK | ≤ 0.25 |
| MQPR | ≤ 0.25 |
| FEHS | ≤ 0.25 |
| PWVN | ≤ 0.25 |
| LYPP | ≤ 0.25 |
| PLVQ | ≤ 0.25 |
| LMAH | ≤ 0.25 |
| IGVM | ≤ 0.25 |
| IIIF | ≤ 0.25 |
| EEKF | ≤ 0.25 |
| VEHP | ≤ 0.25 |
| RNTW | ≤ 0.25 |
| TDVF | 0.978 |
| MRPT | ≤ 0.25 |
| PCRR | ≤ 0.25 |

| Variant | enrichment ratio |
| --- | --- |
| SRAK | ≤ 0.25 |
| WSIQ | ≤ 0.25 |
| YWQP | ≤ 0.25 |
| LIRA | ≤ 0.25 |
| MGIP | ≤ 0.25 |
| GCGY | ≤ 0.25 |
| VQRC | ≤ 0.25 |
| MRFV | ≤ 0.25 |
| TLVY | ≤ 0.25 |
| LWAC | ≤ 0.25 |
| QRTV | ≤ 0.25 |
| IYRW | ≤ 0.25 |
| REEL | ≤ 0.25 |
| MKVR | ≤ 0.25 |
| TFHM | ≤ 0.25 |
| WYKE | ≤ 0.25 |
| TMLQ | 12.2 |
| GPHW | ≤ 0.25 |
| SCYI | 0.295 |
| AWSS | ≤ 0.25 |
| YCYT | ≤ 0.25 |
| PMDD | ≤ 0.25 |
| EYKS | ≤ 0.25 |
